# Hit rate of the full screen: of about 340,000 compounds, about 6,900 (2%) were called active. Cut-off read from the data, not from the text of the source: active = inhibition above about 30%; inactive = below that, where a call was filed. Only a part is listed here, and it is no random draw. The source gives no active or inactive call for entries shown without one.
# Target: D(2) dopamine receptor (Homo sapiens) (UniProt P14416)
# Assay: HTS Assay for Allosteric Antagonists of the Human D2 Dopamine Receptor: Primary Screen for Antagonists; note: 0% is about no effect
# Details: HEK293 TREx D2 cells, calcium flux, dopamine EC80; at 10 µM; stronger effect = higher value
# Summary of the method: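 HEK293 T-REx D2 cells, tet-induced, calcium dye no-wash. Cpd pintool add, 180 s kinetic, then EC80 DA, 180 s kinetic. Ca flux read.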
# UniProt P14416, sequence (P14416 whole entry, looked up): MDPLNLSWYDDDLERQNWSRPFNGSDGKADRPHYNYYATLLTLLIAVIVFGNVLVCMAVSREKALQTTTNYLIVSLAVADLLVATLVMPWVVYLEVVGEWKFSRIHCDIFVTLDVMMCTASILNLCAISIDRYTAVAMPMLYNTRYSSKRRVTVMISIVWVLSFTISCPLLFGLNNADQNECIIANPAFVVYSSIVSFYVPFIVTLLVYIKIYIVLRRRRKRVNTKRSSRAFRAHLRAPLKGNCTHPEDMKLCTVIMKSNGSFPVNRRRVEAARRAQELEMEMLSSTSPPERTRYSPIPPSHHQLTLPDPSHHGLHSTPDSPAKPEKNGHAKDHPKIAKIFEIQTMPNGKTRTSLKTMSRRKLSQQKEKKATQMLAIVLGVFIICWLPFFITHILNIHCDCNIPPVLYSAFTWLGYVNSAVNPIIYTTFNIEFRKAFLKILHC
row,SMILES,inhibition
1,Cc1ccc(CN2CCN(C3CCN(C(=O)Nc4ccccc4C(F)(F)F)CC3)C(=O)C2=O)cc1,-10.8%
2,Cc1cc(C)c2oc(C(=O)Nc3ccc(S(=O)(=O)N4CCC(C)CC4)cc3)cc(=O)c2c1,0.0257%
3,CC(=O)NCCCC(=O)NNC1CC(=O)N(c2cccc(Cl)c2)C1=O (stereo not given),active: 37.1%
4,Cc1ccc(S(=O)(=O)n2nc(-c3ccco3)nc2NCc2ccccc2Cl)cc1,6.5%
5,CCn1c(=O)cc(OCC(=O)N2CCN(c3ccccc3OC)CC2)c2ccccc21,7.52%
6,CCn1cc2nc(SCC(=O)Nc3ccc(F)cc3F)n(Cc3ccccc3)c(=O)c2n1,active: 31.9%
7,Cn1c(CNC(=O)CSc2nc(-c3cccc(Cl)c3)nc3cc(=O)[nH]n23)nc2ccccc21,9.31%
8,Cc1cc(N2CCN(c3cccc(C)c3C)CC2)n2nc(C)c(-c3ccc(Cl)cc3)c2n1,15.2%
9,CCOc1ccc(C2c3c(oc4ccccc4c3=O)C(=O)N2c2nnc(C)s2)cc1OC (stereo not given),4.47%
10,Cc1ccccc1CNC(=O)c1cc2cc(S(=O)(=O)N3CCCCC3)ccc2n1C,4.65%
11,COc1ccc(-n2c(-c3ccco3)nc3c(cnn3-c3ccccc3C)c2=O)cc1,-10.9%
12,CC(CNS(=O)(=O)c1ccc2c(c1)CC(=O)N2C)c1ccccc1 (stereo not given),7.99%
13,Cc1ccc(C(C)C)c(OCCCn2c(=O)oc3ccccc32)c1,-19.7%
14,CCOC(=O)c1c(C)oc2nc(C)nc(NCCCN3CCN(c4ccc(F)cc4)CC3)c12,11.4%
15,COc1ccc(C(=O)NCCn2cc(SCc3cc(C)ccc3C)c3ccccc32)cc1,-8.19%
16,COc1ccccc1NC(=O)c1ccc2oc(=O)c(S(=O)(=O)c3ccccc3)cc2c1,2.68%
17,COc1cc(C(C)=O)ccc1OCCCN1CCC(Cc2ccccc2)CC1,active: 34.6%
18,CCC(C)NC(=O)c1ccc2c(c1)N(Cc1ccccc1F)C(=O)c1ccccc1S2=O (stereo not given),-7.25%
19,Cc1cc(C)cc(NC(=O)c2cnn(-c3ccc(C)c(C)c3)c2C2CCNCC2)c1,7.67%
20,c1ccc(-c2nc3nonc3nc2-c2ccccc2)cc1,active: 40.8%
21,COc1ccccc1CN1CCN(C(=O)c2ccco2)CC1,active: 85.4%
22,Cn1c(=O)oc2cc(S(=O)(=O)NCCC(=O)NCc3ccc(F)cc3)ccc21,-9.97%
23,CCCCn1c(=N)c(C(=O)NC2CCCCC2)cc2c(=O)n3cccc(C)c3nc21,-9.59%
24,O=C(NCc1ccc(F)cc1)c1ccc(Cn2c(SCc3ccc(F)cc3)nc3cccnc32)cc1,0.562%

row,SMILES,inhibition
1,CCN(CCCNC(=O)c1cc2cc3ccc(OC)cc3nc2s1)c1cccc(C)c1,0.347%
2,CC(C)Cn1c(=O)c2ccccc2n2c(CCC(=O)NCc3ccc(Cl)cc3)nnc12,3.47%
3,Cn1nnc2c(NCc3ccccc3)ncnc21,-20.1%
4,O=C(N/N=C/c1cc(Cl)ccc1O)c1ccc(Br)cc1,active: 34.1%
5,CCc1cccc(NC(=O)C(NS(=O)(=O)c2ccc3nc(C)sc3c2)C(C)C)c1 (stereo not given),-13.4%
6,CC(C)c1ccc2c(c1)NC(c1ccncc1)=NC(c1cccs1)=N2,-4.86%
7,COc1cccc(NC(CNS(=O)(=O)c2ccc(Cl)cc2)c2ccccc2)c1 (stereo not given),-3.45%
8,COc1ccc(-c2cc(OC(=O)c3ccccc3)c3c(C)oc(C)c3c(=O)c2)cc1OC,-4.77%
9,CCOc1ccccc1NC(=O)CCc1c(C)nc2c(c(C)nn2-c2ccccc2)c1C,0.263%
10,C#CCSc1nc(-c2ccccc2)c2cc(Cl)ccc2n1,6.69%
11,Cc1ccc(Cl)cc1N1CCN(C(=O)c2ccc3c(c2)N(Cc2ccccc2F)C(=O)c2ccccc2S3=O)CC1 (stereo not given),-2.08%
12,Cc1ccc(CNC(=O)c2sc3nc(-c4ccccc4)cn3c2C)cc1,-22.8%
13,O=C(CCS(=O)(=O)c1cc(Br)cc2c1N(C(=O)C1CC1)CC2)Nc1ccc(F)cc1,2.91%
14,COCCNC(=O)c1c[nH]c2ccc(S(=O)(=O)N3CCOCC3)cc2c1=O,active: 46.1%
15,CCOc1ccccc1CNC(=O)c1cnc2sc(N3CCOCC3)nn2c1=O,-2.6%
16,CCN(C(=O)Cn1c(=O)nc(-c2ccccc2)c2cc(Cl)ccc21)c1cccc(C)c1,3.43%
17,CCc1cccc(NC(=O)C2CCC(CNS(=O)(=O)c3ccc4c(c3)CCCC(=O)N4)CC2)c1 (stereo not given),8.93%
18,Cc1cncn1CCc1nc2c3ccccc3nc(SCC(=O)Nc3ccc(F)cc3)n2n1,-24.2%
19,CCOc1ccc(CCNC(=O)Cn2ncc3c([nH]c4ccccc43)c2=O)cc1OCC,-26.2%
20,CCc1nc2ccc(C(=O)NCc3ccc(SC)cc3)cc2nc1CC,-21.4%
21,OCCN1CCN(C(c2ccc(Cl)cc2Cl)c2sc3nc(-c4ccco4)nn3c2O)CC1 (stereo not given),-9.91%
22,CCOc1ccc(-n2c(SCC(=O)Nc3ccc4c(c3)OCCO4)nc3c([nH]c4ccccc43)c2=O)cc1,18.4%
23,Cc1nc(-c2ccc(Cl)cc2)sc1C1(C)CC(c2cccc(F)c2)=NO1 (stereo not given),active: 30.5%
24,Clc1ccccc1-c1nnc(-c2ccccc2CNc2ccc(Br)cc2)o1,-8.88%

row,SMILES,inhibition
1,CN(C)S(=O)(=O)c1cccc(C(=O)NCCOC(=O)c2cc(F)c(F)cc2Cl)c1,active: 34.2%
2,COc1ccc(-c2c(C)nn3c(N4CCN(c5ccccc5F)CC4)cc(C)nc23)cc1OC,-0.202%
3,CCc1c(C)sc2c1CCN(C(=O)Nc1cc(C)ccc1OC)C2c1ccc(F)cc1 (stereo not given),3.55%
4,Cc1ccc(NS(=O)(=O)c2ccc3[nH]c4c(c3c2)CCCCCC4)cc1,16.9%
5,CCC(=O)N1CCc2cc(CNS(=O)(=O)c3ccc(Br)s3)ccc21,-11.3%
6,CCN1CCN(C(c2ccccc2F)c2c(O)cc(C)n(CCOC)c2=O)CC1 (stereo not given),1.68%
7,CCCN(CCC)CCNC(=O)c1sc2nc3n(c(=O)c2c1C)CCCCC3,-0.503%
8,Cc1ccc(C)c(N2C(=O)N(C)c3ccccc3S2(=O)=O)c1,4.17%
9,CC1CCCN(S(=O)(=O)c2ccc(N3CCCCS3(=O)=O)cc2)C1 (stereo not given),16.2%
10,C=CCc1ccc(OCc2ccc(C(=O)Nc3ccc(NC(C)=O)cc3)o2)c(OC)c1,-7.23%
11,COc1cccc(NC(=O)Cn2cc(C(=O)c3ccc(F)cc3)c(=O)c3cc(OC)ccc32)c1,-9.24%
12,Cc1cccc(Cn2cnc3c(oc4ccccc43)c2=O)c1,3.16%
13,CC(C)c1ccc(NC(=O)c2ccc(Cn3nc(N4CCN(c5ccccc5)CC4)ccc3=O)o2)cc1,-13.6%
14,O=C(Cn1ncn2nc(-c3cccs3)cc2c1=O)NCc1ccccc1Cl,-8.71%
15,CCc1ccc(N2C(=O)CSC23C(=O)N(Cc2cccc(OC)c2)c2ccccc23)cc1 (stereo not given),5.56%
16,O=C(NC1CCCCC1)[C@H](O)[C@@H](O)C(=O)NC1CCCCC1,active: 48.9%
17,CCn1c(=NC(=O)c2ccc(S(=O)(=O)N3CCCC3)cc2)sc2cc(Br)ccc21,15.6%
18,O=C(CN1CCN(c2ccccc2)CC1)c1ccc2cc[nH]c2c1,active: 90%
19,O=c1cc(-c2ccc(F)cc2)nc(SCc2nc(-c3cccc(C(F)(F)F)c3)no2)[nH]1,-19.1%
20,Cc1c(C(=O)N(Cc2cccc(F)c2)C2CCS(=O)(=O)C2)oc2cc(Br)ccc12 (stereo not given),-7.33%
21,COc1ccc(NC(=O)CN2C(=O)C3(SCC(=O)N3c3ccccc3)c3ccccc32)cc1Cl (stereo not given),-4.34%
22,COc1ccc(CNC(=O)c2cccc(N3CCCS3(=O)=O)c2)cc1OC,27.5%
23,CCC(=O)c1ccc(OCC(O)CN2CCN(c3ccc(F)cc3)CC2)cc1 (stereo not given),active: 30.6%
24,Cn1cc(S(=O)(=O)c2cccc(Cl)c2)c(=O)c2cc(F)c(N3CCN(c4ccc(F)cc4)CC3)cc21,-2.23%

row,SMILES,inhibition
1,Cc1ccc(-c2noc(CNS(=O)(=O)c3ccc(F)cc3)n2)cc1,-14%
2,CCc1ccc(Nc2nn(-c3ccc(OC(F)(F)F)cc3)nc2C(C)=O)cc1,-11.2%
3,COc1ccccc1N1CCN(C(=O)CN2C(=O)COc3ccc(S(=O)(=O)N4CCCCCC4)cc32)CC1,0.766%
4,CCN(CC)c1ccc(NC(=O)c2cnc3c(-c4ccccc4)c(C)nn3c2C)c(C)c1,2.09%
5,Cc1c(NC(=O)c2cc(-c3ccc(F)cc3)on2)c(=O)n(-c2ccccc2)n1C,-8.91%
6,Cc1nnc(N2CCN(C(=O)NC(C)C)CC2)c2nn(-c3ccccc3)c(C)c12,6.93%
7,Cc1cc(-c2nc3ncccc3o2)ccc1NC(=O)COc1ccccc1C,-6.52%
8,CCOC(=O)c1ccccc1NC(=O)CSc1ccc(-c2cccs2)nn1,5.58%
9,O=c1c2oc3ccccc3c2n(Cc2cccc(Cl)c2)c(=O)n1Cc1ccco1,3.47%
10,Cc1ccc2occ(CC(=O)N(Cc3ccc(Cl)cc3)C3CCS(=O)(=O)C3)c2c1 (stereo not given),-4.41%
11,FC(F)(F)c1ccccc1CN1CCN(C2CCCCCC2)CC1,active: 43.8%
12,O=S(=O)(Nc1cc(F)ccc1F)c1ccc2[nH]c3c(c2c1)CCCC3,11.6%
13,NS(=O)(=O)c1ccc(CCNc2nccn(-c3cccc(C(F)(F)F)c3)c2=O)cc1,4.12%
14,CSc1nc2c(c(=O)[nH]1)C(c1cccc(F)c1F)CC(=O)N2 (stereo not given),1.3%
15,CC(C)(C)C(=O)Nc1ccc2nc(SCC(=O)N3CCOCC3)sc2c1,8.05%
16,C=CCN(c1ccc(C(=O)Nc2cccc([N+](=O)[O-])c2)cc1)S(C)(=O)=O,active: 37.2%
17,CCCCN(CCCC)CCNC(=O)Cn1nc(C)n2c(cc3sccc32)c1=O,-11.5%
18,COc1cccc(CNC(=O)c2ccc3c(c2)c(C)c(C)n3Cc2ccccc2)c1OC,9.51%
19,CC(C)c1ccc(NC(=O)CS(=O)(=O)c2cccc3nsnc23)cc1,9.13%
20,COc1ccc(NS(=O)(=O)c2cc(Br)cc3c2N(C(=O)C2CC2)CC3)cc1OC,-3.49%
21,COc1ccc(CNC(=O)CN2C(=O)COc3ccc(S(=O)(=O)Nc4ccccc4)cc32)cc1,-0.0687%
22,CCOC(=O)c1cc2c(=O)n3ccccc3nc2n(C(C)C)c1=NC(=O)c1cc2ccccc2o1,-2.03%
23,O=C(Nc1ccc(F)c(F)c1)c1cc(S(=O)(=O)NC2CCCCCC2)ccc1F,9.65%

# From PubChem BioAssay AID485344 (National Center for Advancing Translational Sciences (NCATS), 2010)
